Experimental data as given in the supplement of paper PMC3334620.
Whole data set: some 33,000 sequences, median “E-score (-0.5 to 0.5)” near -0.016, cut for the highest 2% near 0.32. The list shows a part of the results.

Each sequence was assayed against T1, Stp1 (UniProt B3LFK1) (assay: PBM E-score (8-mer binding enrichment) (E-score (-0.5 to 0.5)); higher = stronger / more preferred TF binding; most listed sequences are background and not binding sites). Details: protein concentration: 200 nM; construct: GST-full length.
T1 sequence: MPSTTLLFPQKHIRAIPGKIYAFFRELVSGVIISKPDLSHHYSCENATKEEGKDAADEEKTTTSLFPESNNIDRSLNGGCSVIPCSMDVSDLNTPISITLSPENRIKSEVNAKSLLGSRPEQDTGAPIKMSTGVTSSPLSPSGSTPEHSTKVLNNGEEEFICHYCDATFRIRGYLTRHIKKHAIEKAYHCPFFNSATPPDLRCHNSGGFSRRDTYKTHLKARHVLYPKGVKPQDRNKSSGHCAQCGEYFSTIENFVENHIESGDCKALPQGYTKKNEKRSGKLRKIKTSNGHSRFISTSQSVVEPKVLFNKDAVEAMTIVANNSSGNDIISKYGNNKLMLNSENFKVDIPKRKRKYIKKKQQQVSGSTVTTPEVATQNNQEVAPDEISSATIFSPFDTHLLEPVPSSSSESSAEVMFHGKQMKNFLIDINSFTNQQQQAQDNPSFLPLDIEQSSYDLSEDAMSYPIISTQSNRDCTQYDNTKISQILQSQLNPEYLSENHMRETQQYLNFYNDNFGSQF
Procedure: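 Universal 'all 10-mer' protein binding microarrays (Agilent AMADID 015681) probed with GST-tagged S. cerevisiae TFs (full-length or DBD) made by in vitro transcription/translation (PURExpress), about 100-200 nM. Bound TF was detected with fluorescent anti-GST. Each ungapped 8-mer (which stands for itself and its reverse complement) is scored by the PBM enrichment score (E-score), a modified Wilcoxon-Mann-Whitney statistic from -0.5 to +0.5, computed with the Universal PBM Analysis Suite. Scale: above 0.35 generally sequence-specific binding.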

Sequence	PBM E-score
AAGTTTGA	0.0416
AGCTTGCA	-0.0443
ACGTCCGA	-0.0245
AGTCTTAC	-0.121
ACTCGGCT	-0.0573
GATCCGAC	-0.18
CGGCAGCC	0.216
AATCTTAC	0.144
AGTCCATA	-0.028
CGTATTCC	0.0285
GCAGACCC	-0.107
CATGGTGG	-0.199
CATAGGAG	0.0407
ACTAACCA	0.063
GCGCCTAA	0.313
ACCCGACG	-0.183
AGAGATTA	-0.0422
ATCTGAAT	0.0625
CCCGGCGC	0.121
CCGTTGCC	0.247
AGCCGTTG	0.26
AGGGGGAG	-0.347
ACTGAAGA	0.0561
AAATCCTA	0.0107
ACGCCTCC	-0.102

Sequence	PBM E-score
ATCCCCAG	-0.326
AGAACCGG	0.0624
CTCACAGC	0.0766
ACCAATTG	-0.00862
ATCTGCGG	0.254
CACCGAAA	0.0518
AGCGGAAA	0.0606
ACTCTCAT	-0.0907
CCATGTAA	0.0652
AGATACCA	0.101
AGTGCAGG	-0.0709
CCGAACTC	-0.135
GGCTGTCA	-0.0641
ACAGGGAG	0.0213
AGTCATTG	-0.381
CCACGGCA	0.46
TCAGGCCA	-0.0493
AGTGTTAG	-0.022
TAAGGCAA	0.165
ATACCTTA	-0.00814
ACGTAGCC	0.00923
ATTTAAGA	0.0246
ACATTACC	-0.106
CTACGTCC	-0.143
GTACCCCA	-0.255

Sequence	PBM E-score
ACAGGGCT	-0.0531
GGGCTTAC	-0.165
AAGGTGTG	-0.0841
CCCCTCAA	0.041
ACAGGAAA	0.19
ACCTCGAA	-0.165
ACATGATA	0.21
GTCTATCA	-0.0881
CCGGGGAC	-0.346
ATTAGCCA	0.0367
AGGTTACA	-0.0575
GCAAGTGA	-0.0866
TAGGACAA	0.0561
GAATACAC	0.0184
ACAGAATA	0.0434
GCTGTTCA	-0.00269
AATTCACG	0.0873
GTGCAGCA	-0.0575
CATGGGCA	-0.0295
GCCACCTA	-0.0547
AATCCAAA	0.0534
CCCGTGGC	0.046
AACATCCC	-0.0503
GGGACGCA	-0.292
AACTTTTC	0.0507

Sequence	PBM E-score
AGGGCCGG	-0.16
AACTGGGC	-0.297
CAACCTAC	-0.153
AAGTAGGG	-0.0144
AAACTGCA	0.0943
CGCTCTAG	-0.191
AGGTTCCC	-0.264
CAGGACGA	-0.0812
AATTGACC	0.142
CTATCCCC	-0.317
CGCACTAG	-0.00448
ACGAGAAT	0.0498
CAGTATTA	0.1
AATATCCG	0.198
GTCAGTAA	0.0196
AACTAACA	0.25
CCTACTGC	0.107
CATCCCTA	0.0183
GTCTACAC	-0.114
AGAGCTAT	-0.179
ACCGGAAG	0.0713
ACCTATGA	-0.213
ACAATTGT	0.0962
CCCTATCA	-0.152
CGAGCGAC	-0.0772

Sequence	PBM E-score
AAGCATCT	-0.17
AACCACTC	0.0101
AGTAACCA	-0.0155
AGGTGTAG	-0.296
AATCGTAT	0.114
CTAGGCTA	-0.248
AGCGGCAC	0.457
CATGCAGA	-0.0125
CGCGTTTC	-0.0791
AGCGGTGC	0.0287
GATATTAC	0.164
GTCTGGGA	-0.297
AAATAGAA	0.0784
CCCTTGGC	-0.27
CGAGTAAA	0.142
AAATATTC	0.117
GGGTAACC	-0.252
GAGTCGCC	0.0137
GGTACTGA	-0.182
ACTATTCC	0.0191
ATGTGCGG	0.213
CGGTTGAG	0.11
AAGTCGGT	-0.167
GTTCGTTA	0.17
GCGCTAAA	0.0766

Sequence	PBM E-score
CGATTTAG	0.0951
GGCACTAC	0.303
AGAACACG	0.109
AACGCGTA	0.104
GTTACTGA	0.205
GGCGTTGA	0.2
CAACACAG	0.026
TGCTGGAA	0.0356
GGCCGAGA	0.0415
ACGCCAAC	-0.00633
ACCTTGCC	-0.0638
GGAATCAA	0.0147
ACACGCCC	-0.181
CATACCCG	0.0455
GACATGGC	-0.159
GACCCGGA	-0.296
CCAAGTGC	-0.0654
CGGACAAC	0.114
CCCGAGCA	-0.16
ATAGTGAA	0.0395
GAGTACAA	0.144
ATTCAGTA	0.133
ACACGGGT	0.202
CCAGCTAA	-0.0143
ATGTCTTA	-0.0654

Sequence	PBM E-score
CCAGAGTC	-0.166
GTAACGCA	0.071
AAAAGCTG	-0.0459
ACAAACAT	0.109
CGAACGGA	0.207
CACATGAC	-0.0361
AATAATGT	0.0838
GTAATGCA	-0.141
TCCCAAGA	-0.00967
GTGATGAA	-0.245
GACCGGCA	0.101
ACCTACAC	-0.269
AATGGATC	0.0312
ACCTCAGA	-0.122
GAGATAAA	0.117
AGGCCGCC	-0.0139
ACCGGCCA	-0.101
GAGATCCC	-0.162
ATAGAGGA	-0.275
ACCTCTCG	-0.295
AGGCAGTG	0.177
ATGTAGCG	-0.174
